According to the supplement of paper PMC8728848:
Some of the results follow.

Assays:
Assay in all cases: glycan array binding signal (z-score within array); higher = stronger binding
Conditions in all cases: glycan notation: IUPAC condensed, linker removed
[1] = target: GlcNAc(a1-4)Gal(b1-3)GlcNAc
Summary of the method: (§1)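 The binding signal is a Z-score computed within each array. Data were drawn from 3228 arrays in the Consortium for Functional Glycomics database, restricted to those with a known protein sequence. Scores were averaged over arrays of the same protein sequence at different concentrations or buffers, and over linkers, and negative values can be taken as non-binding.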

[2] = target: GlcNAc(a1-4)Gal(b1-4)GalNAc
Summary of the method: as §1

[3] = target: GlcNAc(a1-4)Gal(b1-4)GlcNAc
Summary of the method: as §1

[4] = target: GlcNAc(a1-4)Gal(b1-4)GlcNAc(b1-3)Gal(b1-4)Glc
Summary of the method: as §1

[5] = target: GlcNAc(a1-4)Gal(b1-4)GlcNAc(b1-3)Gal(b1-4)GlcNAc
Summary of the method: as §1

[6] = target: GlcNAc(a1-4)Gal(b1-4)GlcNAc(b1-3)Gal(b1-4)GlcNAc(b1-3)Gal(b1-4)GlcNAc
Summary of the method: as §1

[7] = target: GlcNAc(a1-4)Gal(b1-4)GlcNAc(b1-3)Gal(b1-4)[Fuc(a1-3)]GlcNAc(b1-3)Gal(b1-4)[Fuc(a1-3)]GlcNAc
Summary of the method: as §1

[8] = target: GlcNAc(a1-6)Gal(b1-4)GlcNAc
Summary of the method: as §1

[9] = target: GlcNAc(b1-2)Gal(b1-3)GalNAc
Summary of the method: as §1

[10] = target: GlcNAc(b1-2)Man(a1-3)[GlcNAc(b1-2)Man(a1-6)]Man(b1-4)GlcNAc(b1-4)GlcNAc
Summary of the method: as §1

[11] = target: GlcNAc(b1-2)Man(a1-3)[GlcNAc(b1-2)Man(a1-6)]Man(b1-4)GlcNAc(b1-4)[Fuc(a1-6)]GlcNAc
Summary of the method: as §1

[12] = target: GlcNAc(b1-2)Man(a1-3)[GlcNAc(b1-4)][GlcNAc(b1-2)Man(a1-6)]Man(b1-4)GlcNAc(b1-4)GlcNAc
Summary of the method: as §1

[13] = target: GlcNAc(b1-2)Man(a1-3)[GlcNAc(b1-4)][GlcNAc(b1-2)Man(a1-6)]Man(b1-4)GlcNAc(b1-4)[Fuc(a1-6)]GlcNAc
Summary of the method: as §1

[14] = target: GlcNAc(b1-2)[GlcNAc(b1-4)]Man(a1-3)[GlcNAc(b1-2)Man(a1-6)]Man(b1-4)GlcNAc(b1-4)GlcNAc
Summary of the method: as §1

[15] = target: GlcNAc(b1-2)[GlcNAc(b1-4)]Man(a1-3)[GlcNAc(b1-4)][GlcNAc(b1-2)Man(a1-6)]Man(b1-4)GlcNAc(b1-4)GlcNAc
Summary of the method: as §1

[16] = target: GlcNAc(b1-2)[GlcNAc(b1-4)]Man(a1-3)[GlcNAc(b1-4)][GlcNAc(b1-2)[GlcNAc(b1-6)]Man(a1-6)]Man(b1-4)GlcNAc(b1-4)GlcNAc
Summary of the method: as §1

[17] = target: GlcNAc(b1-2)[GlcNAc(b1-4)]Man(a1-3)[GlcNAc(b1-4)][GlcNAc(b1-2)[GlcNAc(b1-6)]Man(a1-6)]Man(b1-4)GlcNAc(b1-4)[Fuc(a1-6)]GlcNAc
Summary of the method: as §1

[18] = target: GlcNAc(b1-2)[GlcNAc(b1-6)]Man(a1-6)[GlcNAc(b1-2)Man(a1-3)]Man(b1-4)GlcNAc(b1-4)GlcNAc
Summary of the method: as §1

[19] = target: GlcNAc(b1-2)[GlcNAc(b1-6)]Man(a1-6)[GlcNAc(b1-2)Man(a1-3)]Man(b1-4)GlcNAc(b1-4)[Fuc(a1-6)]GlcNAc
Summary of the method: as §1

[20] = target: GlcNAc(b1-2)[GlcNAc(b1-6)]Man(a1-6)[GlcNAc(b1-4)][GlcNAc(b1-2)Man(a1-3)]Man(b1-4)GlcNAc(b1-4)GlcNAc
Summary of the method: as §1

[21] = target: GlcNAc(b1-3)Fuc
Summary of the method: as §1

[22] = target: GlcNAc(b1-3)Gal
Summary of the method: as §1

[23] = target: GlcNAc(b1-3)Gal(b1-3)GalNAc
Summary of the method: as §1

[24] = target: GlcNAc(b1-3)Gal(b1-4)Glc
Summary of the method: as §1

[25] = target: GlcNAc(b1-3)Gal(b1-4)GlcNAc
Summary of the method: as §1

[26] = target: GlcNAc(b1-3)Gal(b1-4)GlcNAc(b1-2)Man(a1-3)[GlcNAc(b1-3)Gal(b1-4)GlcNAc(b1-2)Man(a1-6)]Man(b1-4)GlcNAc(b1-4)GlcNAc
Summary of the method: as §1

[27] = target: GlcNAc(b1-3)Gal(b1-4)GlcNAc(b1-2)Man(a1-3)[GlcNAc(b1-3)Gal(b1-4)GlcNAc(b1-2)Man(a1-6)]Man(b1-4)GlcNAc(b1-4)[Fuc(a1-6)]GlcNAc
Summary of the method: as §1

[28] = target: GlcNAc(b1-3)Gal(b1-4)GlcNAc(b1-2)[GlcNAc(b1-3)Gal(b1-4)GlcNAc(b1-6)]Man(a1-6)[GlcNAc(b1-3)Gal(b1-4)GlcNAc(b1-2)Man(a1-3)]Man(b1-4)GlcNAc(b1-4)GlcNAc
Summary of the method: as §1

[29] = target: GlcNAc(b1-3)Gal(b1-4)GlcNAc(b1-3)Gal(b1-4)GlcNAc
Summary of the method: as §1

[30] = target: GlcNAc(b1-3)Gal(b1-4)GlcNAc(b1-3)Gal(b1-4)GlcNAc(b1-2)Man(a1-3)[GlcNAc(b1-3)Gal(b1-4)GlcNAc(b1-3)Gal(b1-4)GlcNAc(b1-2)Man(a1-6)]Man(b1-4)GlcNAc(b1-4)GlcNAc
Summary of the method: as §1

[31] = target: GlcNAc(b1-3)Gal(b1-4)GlcNAc(b1-3)Gal(b1-4)GlcNAc(b1-2)Man(a1-3)[GlcNAc(b1-3)Gal(b1-4)GlcNAc(b1-3)Gal(b1-4)GlcNAc(b1-2)Man(a1-6)]Man(b1-4)GlcNAc(b1-4)[Fuc(a1-6)]GlcNAc
Summary of the method: as §1

[32] = target: GlcNAc(b1-3)Gal(b1-4)GlcNAc(b1-3)Gal(b1-4)GlcNAc(b1-2)[GlcNAc(b1-3)Gal(b1-4)GlcNAc(b1-3)Gal(b1-4)GlcNAc(b1-6)]Man(a1-6)[GlcNAc(b1-3)Gal(b1-4)GlcNAc(b1-3)Gal(b1-4)GlcNAc(b1-2)Man(a1-3)]Man(b1-4)GlcNAc(b1-4)[Fuc(a1-6)]GlcNAc
Summary of the method: as §1

[33] = target: GlcNAc(b1-3)Gal(b1-4)GlcNAc(b1-3)Gal(b1-4)GlcNAc(b1-3)Gal(b1-4)GlcNAc(b1-2)Man(a1-3)[GlcNAc(b1-3)Gal(b1-4)GlcNAc(b1-3)Gal(b1-4)GlcNAc(b1-3)Gal(b1-4)GlcNAc(b1-2)Man(a1-6)]Man(b1-4)GlcNAc(b1-4)GlcNAc
Summary of the method: as §1

[34] = target: GlcNAc(b1-3)Gal(b1-4)GlcNAc(b1-3)Gal(b1-4)GlcNAc(b1-3)Gal(b1-4)GlcNAc(b1-2)Man(a1-3)[GlcNAc(b1-3)Gal(b1-4)GlcNAc(b1-3)Gal(b1-4)GlcNAc(b1-3)Gal(b1-4)GlcNAc(b1-2)Man(a1-6)]Man(b1-4)GlcNAc(b1-4)[Fuc(a1-6)]GlcNAc
Summary of the method: as §1

[35] = target: GlcNAc(b1-3)Gal(b1-4)GlcNAc(b1-3)Gal(b1-4)GlcNAc(b1-3)Gal(b1-4)GlcNAc(b1-2)[GlcNAc(b1-3)Gal(b1-4)GlcNAc(b1-3)Gal(b1-4)GlcNAc(b1-3)Gal(b1-4)GlcNAc(b1-6)]Man(a1-6)[GlcNAc(b1-3)Gal(b1-4)GlcNAc(b1-3)Gal(b1-4)GlcNAc(b1-3)Gal(b1-4)GlcNAc(b1-2)Man(a1-3)]Man(b1-4)GlcNAc(b1-4)[Fuc(a1-6)]GlcNAc
Summary of the method: as §1

[36] = target: GlcNAc(b1-3)Gal(b1-4)GlcNAc(b1-3)Gal(b1-4)GlcNAc(b1-3)Gal(b1-4)GlcNAc(b1-3)Gal(b1-4)GlcNAc(b1-2)Man(a1-3)[GlcNAc(b1-3)Gal(b1-4)GlcNAc(b1-3)Gal(b1-4)GlcNAc(b1-3)Gal(b1-4)GlcNAc(b1-3)Gal(b1-4)GlcNAc(b1-2)Man(a1-6)]Man(b1-4)GlcNAc(b1-4)GlcNAc
Summary of the method: as §1

[37] = target: GlcNAc(b1-3)Gal(b1-4)GlcNAc(b1-3)Gal(b1-4)GlcNAc(b1-3)Gal(b1-4)GlcNAc(b1-3)Gal(b1-4)GlcNAc(b1-2)Man(a1-3)[GlcNAc(b1-3)Gal(b1-4)GlcNAc(b1-3)Gal(b1-4)GlcNAc(b1-3)Gal(b1-4)GlcNAc(b1-3)Gal(b1-4)GlcNAc(b1-2)Man(a1-6)]Man(b1-4)GlcNAc(b1-4)[Fuc(a1-6)]GlcNAc
Summary of the method: as §1

[38] = target: GlcNAc(b1-3)Gal(b1-4)GlcNAc(b1-3)Gal(b1-4)GlcNAc(b1-3)Gal(b1-4)GlcNAc(b1-3)Gal(b1-4)GlcNAc(b1-2)[GlcNAc(b1-3)Gal(b1-4)GlcNAc(b1-3)Gal(b1-4)GlcNAc(b1-3)Gal(b1-4)GlcNAc(b1-3)Gal(b1-4)GlcNAc(b1-6)]Man(a1-6)[GlcNAc(b1-3)Gal(b1-4)GlcNAc(b1-3)Gal(b1-4)GlcNAc(b1-3)Gal(b1-4)GlcNAc(b1-3)Gal(b1-4)GlcNAc(b1-2)Man(a1-3)]Man(b1-4)GlcNAc(b1-4)[Fuc(a1-6)]GlcNAc
Summary of the method: as §1

B1: SAOUHSC 00176 (Staphylococcus aureus) (protein)
chain: MSKILKCITLAVVMLLIVTACGPNRSKEDIDKALNKDNSKDKPNQLTMWVDGDKQMAFYKKITDQYTKKTGIKVKLVNIGQNDQLENISLDAPAGKGPDIFFLAHDNTGSAYLQGLAAEIKLSKDELKGFNKQALKAMNYDNKQLALPAIVETTALFYNKKLVKNAPQTLEEVEANAAKLTDSKKKQYGMLFDAKNFYFNYPFLFGNDDYIFKKNGSEYDIHQLGLNSKHVVKNAERLQKWYDKGYLPKAATHDVMIGLFKEGKVGQFVTGPWNINEYQETFGKDLGVTTLPTDGGKPMKPFLGVRGWYLSEYSKHKYWAKDLMLYITSKDTLQKYTDEMSEITGRVDVKSSNPNLKVFEKQARHAEPMPNIPEMRQVWEPMGNASIFISNGKNPKQALDEATNDITQNIKILHPSQNDKKGD
glycan array binding signal (z-score) [1]: -0.12
glycan array binding signal (z-score) [2]: -0.132
glycan array binding signal (z-score) [3]: -0.211
glycan array binding signal (z-score) [4]: -0.192
glycan array binding signal (z-score) [5]: -0.11
glycan array binding signal (z-score) [6]: -0.186
glycan array binding signal (z-score) [7]: 0.028
glycan array binding signal (z-score) [8]: -0.133
glycan array binding signal (z-score) [9]: -0.062
glycan array binding signal (z-score) [10]: -0.134
glycan array binding signal (z-score) [11]: -0.115
glycan array binding signal (z-score) [12]: -0.056
glycan array binding signal (z-score) [13]: -0.161
glycan array binding signal (z-score) [14]: -0.116
glycan array binding signal (z-score) [15]: -0.052
glycan array binding signal (z-score) [16]: -0.128
glycan array binding signal (z-score) [17]: -0.086
glycan array binding signal (z-score) [18]: -0.091
glycan array binding signal (z-score) [19]: -0.122
glycan array binding signal (z-score) [20]: -0.145
glycan array binding signal (z-score) [21]: -0.027
glycan array binding signal (z-score) [22]: -0.146
glycan array binding signal (z-score) [23]: -0.061
glycan array binding signal (z-score) [24]: -0.067
glycan array binding signal (z-score) [25]: -0.057
glycan array binding signal (z-score) [26]: -0.101
glycan array binding signal (z-score) [27]: -0.091
glycan array binding signal (z-score) [28]: -0.044
glycan array binding signal (z-score) [29]: -0.091
glycan array binding signal (z-score) [30]: -0.03
glycan array binding signal (z-score) [31]: 0.034
glycan array binding signal (z-score) [32]: -0.059
glycan array binding signal (z-score) [33]: -0.088
glycan array binding signal (z-score) [34]: -0.04
glycan array binding signal (z-score) [35]: -0.05
glycan array binding signal (z-score) [36]: -0.032
glycan array binding signal (z-score) [37]: -0.044
glycan array binding signal (z-score) [38]: -0.055
